# Measured values taken from paper PMC6919601, “Identification of Plasmodium dipeptidyl aminopeptidase allosteric inhibitors by high throughput screening” (PLoS ONE, 2019).
# Screen size: about 110,000 compounds; about 230 (0.21%) showed an effect of 50% or more. The list shows a part of the results.
# Biological target: DPAP1 (Plasmodium falciparum, UniProt Q8IIJ9)
# Experiment: primary screen, percent inhibition; read by cleavage of a fluorogenic dipeptide substrate; higher = more effect of the substance
# Set-up: species or system P. falciparum D10 trophozoite lysates; single well
# 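Also: 30 min substrate incubation versus DMSO and 10 µM JCP410 controls.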
# Sequence of DPAP1 (Q8IIJ9 whole entry, looked up): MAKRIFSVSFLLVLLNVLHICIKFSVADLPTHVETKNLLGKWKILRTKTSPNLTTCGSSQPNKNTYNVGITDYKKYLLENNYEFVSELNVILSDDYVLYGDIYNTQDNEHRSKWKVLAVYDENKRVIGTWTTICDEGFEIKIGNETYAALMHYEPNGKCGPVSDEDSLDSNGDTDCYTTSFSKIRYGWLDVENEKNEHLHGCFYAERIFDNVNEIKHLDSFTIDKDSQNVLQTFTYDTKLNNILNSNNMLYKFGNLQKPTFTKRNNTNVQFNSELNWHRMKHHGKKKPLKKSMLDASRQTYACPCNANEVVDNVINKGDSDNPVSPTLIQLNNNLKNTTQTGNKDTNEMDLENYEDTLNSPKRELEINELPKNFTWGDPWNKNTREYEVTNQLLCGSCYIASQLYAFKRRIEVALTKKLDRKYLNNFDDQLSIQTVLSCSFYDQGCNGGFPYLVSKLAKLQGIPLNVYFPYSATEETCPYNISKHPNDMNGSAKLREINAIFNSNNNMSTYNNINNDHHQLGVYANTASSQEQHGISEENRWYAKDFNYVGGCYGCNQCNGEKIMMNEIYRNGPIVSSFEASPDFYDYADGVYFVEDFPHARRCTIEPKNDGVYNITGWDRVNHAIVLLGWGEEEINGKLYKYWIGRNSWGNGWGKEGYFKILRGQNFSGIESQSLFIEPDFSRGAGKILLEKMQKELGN
row,SMILES,% Inhibition @ 10 uM [%]
1,CC1(C)C(C=C(Cl)Cl)C1C(=O)N1CCN(c2ccccc2)CC1 (stereo not drawn),-2.56
2,CCOC(=O)C1=C(c2ccc(OC)cc2)OC(N)=C(C#N)C1c1ccc(F)cc1 (stereo not drawn),1.31
3,N#CCNC(=O)[C@H](Cc1c(F)cccc1F)NC(=O)c1ccc(-c2c(Cl)cc(C(=O)O)cc2Cl)cc1,1.61
4,Cc1ccc(C2SCCN2S(=O)(=O)c2ccc(C)cc2)cc1 (stereo not drawn),0.13
5,Cc1cc(C)c(C2C(C#N)=C(N)Oc3[nH]nc(C)c32)c(C)c1 (stereo not drawn),-2.74
6,CC1=C(C(=O)OC2CCCC2)C(c2ccc(C)cc2)CC(=O)N1 (stereo not drawn),3.67
7,CCN(CC)CCN(CC)Cc1ccccc1F,1.08
8,O=C(Nc1cccc(Cl)c1)c1ccc(Cl)cc1,-5.38
9,Fc1ccc(-n2c(-c3ccccc3)nnc2-c2ccco2)cc1,5.2
10,Cc1cc(C(=O)NC2CCCCC2C)cs1 (stereo not drawn),3.5
11,N#CC1=C(N)OC2=C(C(=O)CCC2)C1c1cc(Br)cs1 (stereo not drawn),1.96
12,O=C(O)CCC(=O)Nc1sc2c(c1C(=O)Nc1cccc3ccccc13)CCCCC2,-2.6
13,Cc1ccc(N2C(=O)c3ccccc3C2=O)cc1F,2.54
14,COc1ccc(S(=O)(=O)N(CCc2ccccc2)CC(=O)N2CCCC2)cc1,0.484
15,COC(=O)c1sccc1NC(=O)Cn1nnc(-c2ccccc2)n1,2.99
16,COc1cccc(-c2c(C)c(C)nc(N)c2C#N)c1,2.77
17,Cc1cc2nc(SCCN(C)C)[nH]c2cc1C,0.132
18,Cc1ccsc1CN1CCN(c2ccccc2)CC1,3.8
19,Cc1cc(-c2ccc(C)c(S(=O)(=O)NCC3CCN(CCc4cccs4)CC3)c2)on1,6.14
20,COCCNC(=O)Cn1sc2nc(C)cc(C)c2c1=O,-3.08
21,Cc1noc(C)c1S(=O)(=O)N1CCCCCC1,-7.54
22,Cc1ccccc1OCC(O)Cn1c(N2CCCCCC2)nc2c1c(=O)[nH]c(=O)n2C (stereo not drawn),7.5
23,O=C(Nc1cccnc1)c1ccc2c(c1)OCO2,-3.39
24,Cc1ccc(N2C(=O)c3ccc(C(=O)N4CCOCC4)cc3C2=O)cc1C,-6.75
25,C/C(=N\N=C(/C=C/c1ccccc1)/C=C/c1ccccc1)c1nnn(-c2nonc2N)c1C,-7.3
26,CC1CN=C(Nc2ccc(NC3=NCC(C)S3)cc2)S1 (stereo not drawn),5.4

row,SMILES,% Inhibition @ 10 uM [%]
1,CCOC(=O)/N=C(/N[C@@H](CC(C)C)C(=O)NCC#N)c1ccccc1,-6.98
2,CC(C)Cc1nc2ccccc2n1Cc1ccc(F)cc1,-2.28
3,Cc1cc(OCC(=O)N(Cc2nc(-c3ccccc3)no2)C(C)C)cc(C)c1Br,1.94
4,O=C(NCc1ccccn1)C1CCN(c2nnc(-n3cccc3)s2)CC1,-0.522
5,Cc1cc2nc(O)c(O)nc2cc1S(=O)(=O)NCc1ccccn1,2.74
6,CN(C(=O)C(Cc1ccccc1)n1cccc1)C1CCCCC1 (stereo not drawn),-6.07
7,Cc1onc(-c2c(Cl)cccc2Cl)c1C(=O)Nc1ccc2c(c1)OCCO2,-1.98
8,Nc1nnc(SCc2cccnc2)s1,2.37
9,c1ccc(CNc2ccccn2)cc1,-6.82
10,Cc1ccc(-c2noc(CCC(=O)NC3CCCC3)n2)cc1,4.58
11,CC12c3ccccc3C(C)(c3ccccc31)C1C(=O)N(c3ccc(C(=O)O)cc3)C(=O)C12 (stereo not drawn),-1.28
12,COc1ccc(OCC(=O)Nc2cc(C)ccn2)cc1,6.42
13,O=C(Nc1cccc(C(F)(F)F)c1)c1cc2ccccc2cc1O,3.8
14,CCc1nnc(NC(=O)Cc2coc3ccc(C(C)C)cc23)s1,1
15,CCCCN(C)Cc1cc([N+](=O)[O-])ccc1O,1.88
16,Cc1ccccc1CSCC(=O)Nc1cccc(N(C)S(C)(=O)=O)c1,-0.968
17,O=C1C=C/C(=N\S(=O)(=O)c2ccc(Cl)cc2)c2ccccc21,-1.52
18,O=C(O)CCNS(=O)(=O)c1cccs1,4.35
19,O=C(c1cc2ccccc2nc1-c1ccco1)C(F)(F)F,-4.81
20,Cn1c(=O)c2c(nc(CN3CCN(Cc4ccccc4)CC3)n2CCN2CCOCC2)n(C)c1=O,5.5
21,Cc1ccc(-n2nc3c(N4CCC(C(=O)NCCCN5CCCC5=O)CC4)nnc(C)c3c2C)cc1,6
22,CCCN(CCO)Cc1cccc(F)c1,-7.34
23,O=C(c1ccccc1[N+](=O)[O-])N1CCN(c2cccc(C(F)(F)F)c2)CC1,-5.62
24,CC(=O)Nc1ccc(C(=O)CSc2ccc(C(C)(C)C)cc2)cc1,-1.6
25,O=C(CCc1ccccc1)Nc1sc2c(c1C(=O)O)CCCC2,15.1
